# Measurements published in the BET-seq Pho4 binding data (Le et al. 2018).
# This is one part of the list. These are noisy estimates, calculated here from bound and input reads.
# Target: T1, Pho4 (S. cerevisiae) (UniProt P07270)
# T1 sequence: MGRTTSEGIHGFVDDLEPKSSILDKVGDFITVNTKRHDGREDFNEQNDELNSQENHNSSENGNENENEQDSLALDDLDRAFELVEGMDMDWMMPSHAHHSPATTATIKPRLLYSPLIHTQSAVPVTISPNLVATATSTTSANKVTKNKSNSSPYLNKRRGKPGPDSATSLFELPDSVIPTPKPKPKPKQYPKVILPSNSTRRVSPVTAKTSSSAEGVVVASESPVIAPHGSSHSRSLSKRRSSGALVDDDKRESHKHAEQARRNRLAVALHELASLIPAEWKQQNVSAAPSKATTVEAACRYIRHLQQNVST
# Experiment: relative binding free energy (BET-seq); higher = weaker binding
# Details: reference: library average
row,Sequence,relative binding free energy [kcal/mol]
1,ATATTCACGTGAGTGT,0.32
2,TAGGACACGTGAATAT,0.3
3,ACGAGCACGTGTGGGA,-0.17
4,ATAGTCACGTGGTCGG,0.15
5,CAGTGCACGTGGGCGT,-0.15
6,GTCGGCACGTGGAGGG,-0.02
7,ATAGACACGTGTGTGG,-0.07
8,TATAGCACGTGTTTGA,-0.11
9,GGTACCACGTGACGGT,0.35
10,AGGTGCACGTGTTGGA,-0.1
11,TTTAGCACGTGCTGTT,-0.14
12,AATTGCACGTGGGGTA,-0.21
13,TTTTTCACGTGAATTT,0.36
14,AGTCTCACGTGATTTT,0.19
15,GATTCCACGTGAGGGG,0.4
16,AGGCTCACGTGAGGGA,0.44
17,TGGCTCACGTGGAATT,0.33
18,GAAAGCACGTGTGGGG,0
19,TTTCGCACGTGTGATG,0.13
20,GGAAGCACGTGATGAG,0.08
21,TGCGTCACGTGGTTAT,0.06
22,ATGATCACGTGTATTT,0.13
23,AGTGACACGTGTTGTG,-0.06
24,GGAGTCACGTGTTAGT,0.13
25,TGCGGCACGTGTCAGG,-0.13

row,Sequence,relative binding free energy [kcal/mol]
1,GCTTTCACGTGTTGAG,0.18
2,GGTGTCACGTGGGATG,0.09
3,GTGGTCACGTGGAAAG,0.29
4,TTTGACACGTGTTGCT,-0.03
5,ATGGCCACGTGGTGTG,-0.19
6,TTGGACACGTGGAGGG,0
7,GGGGACACGTGATATG,0.14
8,GGATCCACGTGGGTTT,0.22
9,TCAGTCACGTGTGGTA,0.11
10,TGGTCCACGTGTTATG,0.01
11,TAGGTCACGTGGTTGC,0.04
12,GCATTCACGTGAAGGT,0.46
13,GTCTGCACGTGGTTAG,0.03
14,AGTTACACGTGTTGTC,0.08
15,TTTGACACGTGTAGAG,0.15
16,AAGTGCACGTGAAATT,0.27
17,ATTAGCACGTGGGTTT,-0.17
18,TCTTGCACGTGCAGTT,0.06
19,AGGAGCACGTGGGGTA,-0.25
20,TTAAACACGTGTTTCT,-0.06
21,GTTTACACGTGCGGAT,0.3
22,GAGTTCACGTGGGACG,0.27
23,TGGCTCACGTGTGGTG,0.28
24,AGAAGCACGTGGGTAG,-0.14
25,GTGAGCACGTGGTCGG,-0.04

row,Sequence,relative binding free energy [kcal/mol]
1,GTATACACGTGGAAGT,0.08
2,GGTTTCACGTGTTCAG,0.08
3,CTGATCACGTGGAGTG,0.17
4,TATTTCACGTGTTAAG,0.25
5,TTGACCACGTGGGGGT,-0.14
6,TATCGCACGTGGTTAA,-0.07
7,CAGAGCACGTGGTTGA,-0.03
8,TTGTACACGTGGCAGG,-0.19
9,GCTGTCACGTGCGGGG,0.04
10,GGACTCACGTGTGTTT,0.24
11,GTGGCCACGTGGGAGA,-0.2
12,CGTGGCACGTGAGGGA,0.19
13,GTAGGCACGTGCCGTG,-0.24
14,GGGTGCACGTGCACGA,0.05
15,TGTTACACGTGCATGA,0.16
16,TGCATCACGTGTAGTG,0.02
17,TGGGCCACGTGCTGGT,-0.29
18,TGGTTCACGTGTGATC,0.33
19,GGAGTCACGTGATTCT,0.3
20,GGGTTCACGTGTAAAT,0.5
21,AGGGGCACGTGTTCAT,-0.2
22,CTGCACACGTGTTTGG,0.08
23,AAAATCACGTGTGGAT,0.24
24,AGCTACACGTGGGGGT,-0.1
25,TTTTTCACGTGCGTTC,0.15

row,Sequence,relative binding free energy [kcal/mol]
1,TTGAGCACGTGGTAGA,-0.12
2,CAGTGCACGTGGCGGT,-0.23
3,CAGGGCACGTGGGAGG,-0.21
4,ATAGGCACGTGAGGTC,0.16
5,GGTAACACGTGCGGGA,-0.09
6,GATGTCACGTGGTGCT,0.07
7,TGTTTCACGTGTACAT,0.13
8,GGTTACACGTGTATGT,0.3
9,TAAGCCACGTGAGGGG,0.22
10,GACGTCACGTGGCGGG,-0.08
11,TAGTTCACGTGGGGCC,0.34
12,CGTTTCACGTGGTACT,0.34
13,TTCGTCACGTGTAAGG,0.13
14,GTAAACACGTGAGTAT,0.26
15,TTTTGCACGTGGCTTA,0
16,GAAAGCACGTGGGTCG,-0.14
17,TGGTACACGTGTTCTG,-0.02
18,TTTTTCACGTGGGGAG,0.28
19,GGCTCCACGTGGGGTG,-0.19
20,AGGATCACGTGGTGTT,0.11
21,CGTGGCACGTGGTTAT,-0.17
22,ATTCACACGTGATTGG,0.13
23,GATAACACGTGATGGG,0.14
24,GGCCTCACGTGGGATG,0.27
25,AGGGCCACGTGTATGG,-0.09

row,Sequence,relative binding free energy [kcal/mol]
1,CGATACACGTGTTTTG,0.07
2,GGGCACACGTGATAGG,0.2
3,GGTTGCACGTGCTGGA,-0.06
4,GTGCTCACGTGAGGGG,0.38
5,AATGTCACGTGGTAGA,0.04
6,ATCTACACGTGAAGTG,0.35
7,ATTGACACGTGCTATG,0.01
8,ATATTCACGTGGTGAG,0.2
9,GGCTTCACGTGTTGCG,0.24
10,TATGCCACGTGGCGGG,-0.25
11,TCTAGCACGTGTTGTT,-0.01
12,GGATCCACGTGGGGCG,-0.09
13,CTTGACACGTGAATGT,0.22
14,GATCTCACGTGGTTGT,0.11
15,ATGATCACGTGTATAG,0.07
16,TTCTGCACGTGTTAAA,0.04
17,AGATGCACGTGAGTTA,0.2
18,CCTGTCACGTGGTGTT,0.07
19,TGTATCACGTGTGTCG,0.13
20,GTAGGCACGTGCCGGG,-0.23
21,TTATTCACGTGTGCTA,0.22
22,TCGGTCACGTGTGTGT,0.1
23,TAATGCACGTGGTTAT,-0.07
24,GTTGGCACGTGGGCTT,-0.15
25,TAGATCACGTGTACTG,0.23

row,Sequence,relative binding free energy [kcal/mol]
1,TTTGACACGTGTGGAG,-0.01
2,TGCTGCACGTGCGTTT,-0.15
3,TAGTACACGTGTACGT,0.12
4,TTTAGCACGTGTTTCA,-0.14
5,TTGTGCACGTGCAAGG,-0.05
6,TTTGACACGTGCTTTT,0.04
7,GATGGCACGTGTAGGC,0.11
8,GGAAGCACGTGTGTTG,0
9,CGTTACACGTGGTGTG,-0.01
10,GTTGCCACGTGTGCGG,-0.11
11,AGGATCACGTGGTTTA,0.06
12,ATTTGCACGTGTGAAT,0.12
13,TGTGTCACGTGTATCG,0.1
14,AGGAGCACGTGCTAGT,-0.21
15,TTTAGCACGTGAGTCT,0.09
16,AACGGCACGTGAGTTG,0.13
17,GAGGACACGTGGTGCT,0
18,CTTGGCACGTGCATTT,-0.07
19,TGTTCCACGTGTGGAT,0.09
20,TCTTGCACGTGGTTGG,-0.02
21,TGGGACACGTGTCTGT,-0.1
